Results: a collection of fitness landscapes (doi:10.1038/s41467-024-54723-y)
Whole data set: some 18,000 sequences, median “TetR repression strength (sort-seq, GFP reporter)” near 0.23, cut for the highest 2% near 0.68. The list shows a part of the results.

Target: TetR (class B, Tn10) (UniProt P04483)
Test: TetR repression strength (sort-seq, GFP reporter) (relative to tetO2 = 1); higher = stronger repression
Details: E. coli
In short: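 Repression strength is the top bin index plus one minus the read-weighted mean bin, relative to the unaltered operator's value. A low-copy library in E. coli SIG10-MAX randomized eight operator positions between a constitutive promoter and sfGFP, with TetR expressed constitutively; cells grew 5 h at 37 °C in LB with 50 µg/mL chloramphenicol and 10^6 were FACS-sorted into 13 bins that were each Illumina-sequenced. Three independent transformations were averaged, keeping only members with ≥30 reads in all replicates and CV ≤0.5.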

Chain of UniProt P04483 (P04483 whole entry): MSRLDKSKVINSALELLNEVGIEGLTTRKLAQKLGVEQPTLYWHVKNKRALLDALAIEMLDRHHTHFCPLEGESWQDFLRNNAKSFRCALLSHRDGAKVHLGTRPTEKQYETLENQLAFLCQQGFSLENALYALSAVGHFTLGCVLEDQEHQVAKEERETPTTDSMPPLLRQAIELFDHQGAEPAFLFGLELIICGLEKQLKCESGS

| Sequence | TetR repression strength |
| --- | --- |
| TCCCCAGTAGTGAACGAGA | 0.359 |
| TCCCGGGCAGTGCGCGAGA | 0.237 |
| TCCCCCCAAGTGGAAGAGA | 0.32 |
| TCCCACTGAGTGGCCGAGA | 0.3 |
| TCCCCGTGAGTTGATGAGA | 0.21 |
| TCCCTGGCAGTTCAGGAGA | 0.203 |
| TCCCTAATAGTAACTGAGA | 0.104 |
| TCCCGTTAAGTAAGAGAGA | 0.271 |
| TCCCGTACAGTTATAGAGA | 0.352 |
| TCCCGACGAGTCCTGGAGA | 0.164 |
| TCCCGTGAAGTTAGGGAGA | 0.0583 |
| TCCCGTCAAGTGCATGAGA | 0.315 |
| TCCCGTGAAGTATTGGAGA | 0.261 |
| TCCCGGCCAGTTTGAGAGA | 0.264 |
| TCCCGTCAAGTACAGGAGA | 0.119 |
| TCCCTAGGAGTTTTCGAGA | 0.181 |
| TCCCTGTTAGTATCTGAGA | 0.484 |
| TCCCAAGTAGTGTCGGAGA | 0.238 |
| TCCCGAGGAGTCGGTGAGA | 0.29 |
| TCCCGTAAAGTTGGTGAGA | 0.264 |
| TCCCACCTAGTAGGGGAGA | 0.236 |
| TCCCAAACAGTCGTGGAGA | 0.311 |
| TCCCAGAGAGTCCGTGAGA | 0.114 |
| TCCCCTCGAGTGATGGAGA | 0.246 |
| TCCCGCGCAGTGATGGAGA | 0.0786 |
| TCCCGGCGAGTTGAGGAGA | 0.118 |

| Sequence | TetR repression strength |
| --- | --- |
| TCCCAGGCAGTTAGCGAGA | 0.228 |
| TCCCGGGCAGTCGTCGAGA | 0.311 |
| TCCCGGGTAGTCGCGGAGA | 0.198 |
| TCCCGTGCAGTAAGGGAGA | 0.138 |
| TCCCTAGCAGTGTGGGAGA | 0.233 |
| TCCCAGTCAGTTAGGGAGA | 0.112 |
| TCCCCGAGAGTCGGGGAGA | 0.311 |
| TCCCATTTAGTACTGGAGA | 0.234 |
| TCCCGGATAGTATCAGAGA | 0.893 |
| TCCCATCTAGTACTGGAGA | 0.332 |
| TCCCTCAAAGTCACGGAGA | 0.433 |
| TCCCGATGAGTGTAAGAGA | 0.203 |
| TCCCGGGAAGTTATGGAGA | 0.408 |
| TCCCAGAGAGTTGTCGAGA | 0.619 |
| TCCCGCAGAGTAAAGGAGA | 0.152 |
| TCCCGAGCAGTAACAGAGA | 0.752 |
| TCCCGTGTAGTCACGGAGA | 0.147 |
| TCCCAACGAGTACGTGAGA | 0.272 |
| TCCCGTCAAGTTGGTGAGA | 0.261 |
| TCCCTTGCAGTGGCGGAGA | 0.245 |
| TCCCCGCGAGTCGGGGAGA | 0.0291 |
| TCCCATTCAGTGGTGGAGA | 0.234 |
| TCCCGTAGAGTGGGAGAGA | 0.0307 |
| TCCCGAAGAGTTGGTGAGA | 0.187 |
| TCCCCAGCAGTCGGGGAGA | 0.104 |
| TCCCAGTCAGTGAGTGAGA | 0.316 |

| Sequence | TetR repression strength |
| --- | --- |
| TCCCTCACAGTCAGGGAGA | 0.104 |
| TCCCTCGCAGTTAATGAGA | 0.391 |
| TCCCAGGGAGTTTTCGAGA | 0.104 |
| TCCCGTTGAGTACGAGAGA | 0.32 |
| TCCCCCGTAGTGCAGGAGA | 0.201 |
| TCCCACTGAGTGACCGAGA | 0.265 |
| TCCCCGGAAGTCGGAGAGA | 0.0161 |
| TCCCGTGAAGTAAGCGAGA | 0.404 |
| TCCCCAAGAGTATTTGAGA | 0.445 |
| TCCCCGGAAGTGCAGGAGA | 0.314 |
| TCCCTCAGAGTGGGCGAGA | 0.177 |
| TCCCCGCGAGTGTTCGAGA | 0.254 |
| TCCCTACGAGTGGCTGAGA | 0.434 |
| TCCCTACGAGTGGAAGAGA | 0.202 |
| TCCCGGAAAGTGCGCGAGA | 0.112 |
| TCCCCATAAGTGATTGAGA | 0.42 |
| TCCCGAGGAGTTGCGGAGA | 0.171 |
| TCCCAGCTAGTTTTCGAGA | 0.415 |
| TCCCGGGGAGTCGGGGAGA | 0.503 |
| TCCCATCCAGTCTTAGAGA | 0.612 |
| TCCCGGCTAGTAGCAGAGA | 0.0201 |
| TCCCATCGAGTCTCGGAGA | 0.295 |
| TCCCGGACAGTGCATGAGA | 0.4 |
| TCCCTGCGAGTCAGGGAGA | 0.248 |
| TCCCGGCAAGTGGGCGAGA | 0.298 |
| TCCCTTGTAGTTCAAGAGA | 0.258 |

| Sequence | TetR repression strength |
| --- | --- |
| TCCCGATGAGTAATGGAGA | 0.0424 |
| TCCCTTTTAGTGTAAGAGA | 0.213 |
| TCCCGCGCAGTATGAGAGA | 0.152 |
| TCCCGTGAAGTCCTGGAGA | 0.218 |
| TCCCTTGCAGTAGGGGAGA | 0.308 |
| TCCCGAGCAGTATGGGAGA | 0.194 |
| TCCCGCCTAGTGACAGAGA | 0.352 |
| TCCCAGTTAGTGTGGGAGA | 0.161 |
| TCCCGTGGAGTTTTAGAGA | 0.478 |
| TCCCCTGCAGTTAGGGAGA | 0.221 |
| TCCCAGCAAGTGCATGAGA | 0.153 |
| TCCCGGGGAGTCACGGAGA | 0.234 |
| TCCCTTTGAGTGCCTGAGA | 0.207 |
| TCCCTTAAAGTATTTGAGA | 0.236 |
| TCCCGCGAAGTGTGGGAGA | 0.233 |
| TCCCTAGAAGTCATGGAGA | 0.048 |
| TCCCACTAAGTAGTCGAGA | 0.126 |
| TCCCGGGGAGTTACGGAGA | 0.447 |
| TCCCCAAAAGTGGAAGAGA | 0.266 |
| TCCCAGGGAGTCAGAGAGA | 0.186 |
| TCCCCGCCAGTCATCGAGA | 0.411 |
| TCCCATTCAGTCGTCGAGA | 0.215 |
| TCCCCTGAAGTGACAGAGA | 0.428 |
| TCCCGTACAGTTCATGAGA | 1.18 |
